pIC50: −log10 of the molar value.
Tested on: Human lymphoma cell line KARPAS-299
Assay: cells
Settings: KARPAS-299, 96 h, read-out: Inhibitory activity on Karpas-299 cell growth IC50

Compound	pIC50
CCCC#Cc1cc2c(cc1N1CCOCC1)C(C)(C)c1[nH]c3cc(C#N)ccc3c1C2=O [Compound F5-8, 6,6-Dimethyl-8-morpholin-4-yl-11-oxo-9-pent-1-ynyl-6,11-dihydro-5H-benzo[b]carbazole-3-carbonitrile]	7.53
CC1(C)c2cc(O)c(-c3ccc(O)cc3F)cc2C(=O)c2c1[nH]c1cc(Br)ccc21 [Compound T27-2, 3-Bromo-9-(2-fluoro-4-hydroxy-phenyl)-8-hydroxy-6,6-dimethyl-5,6-dihydro-benzo[b]carbazol-11-one]	6.00
COc1ccc2c(c1)C(C)(C)c1[nH]c3c(Br)c(C#N)ccc3c1C2=O [Compound U5, 4-Bromo-8-methoxy-6,6-dimethyl-11-oxo-6,11-dihydro-5H-benzo[b]carbazole-3-carbonitrile]	6.91
CNS(=O)(=O)N1CCN(C(=O)COc2ccc3c(c2)C(C)(C)c2[nH]c4cc(Br)ccc4c2C3=O)CC1 [Compound T13-10, 4-[2-(3-Bromo-6,6-dimethyl-11-oxo-6,11-dihydro-5H-benzo[b]carbazole-8-yl-oxy)-acetyl]-piperazine-1-sulfonic acid methylamide]	5.86
CCN(CC)CCOc1ccc2c(c1)C(C)(C)c1[nH]c3cc(N(C)Cc4ccccc4)ccc3c1C2=O [GT5-3, 3-(Benzyl-methyl-amino)-8-(2-diethylamine-ethoxy)-6,6-dimethyl-5,6-dihydro-benzo[b]carbazol-11-one]	5.73
CC1(C)c2cc(OCCN3CCNC(=O)C3)ccc2C(=O)c2c1[nH]c1cc(C#N)ccc21 [Compound A8-17, 6,6-Dimethyl-11-oxo-8-[2-(3-oxo-piperazin-1-yl)-ethoxy]-6,11-dihydro-5H-benzo[b]carbazole-3-carbonitrile]	6.90
CC1(C)c2cc(N3CCN(C4COC4)CC3)c(CCCN3CCN(C4COC4)CC3)cc2C(=O)c2c1[nH]c1cc(C#N)ccc21 [Compound F6-6, 6,6-Dimethyl-8-(4-oxetan-3-yl-piperazin-1-yl)-9-[3-(4-oxetan-3-yl-piperazin-1-yl)-propyl]-11-oxo-6,11-dihydro-5H-benzo[b]carbazole-3-carbonitrile]	7.44
N#Cc1ccc2c3c([nH]c2c1)C1(CCOCC1)c1cc(OC2CCNCC2)ccc1C3=O [Compound N6-2, 11-Oxo-8-(piperidin-4-yloxy)-2′,3′,5,5′,6′,11-hexahydrospiro[benzo[b]carbazole-6,4′-pyran]-3-carbonitrile]	7.61
CC(C)OCC#Cc1cc2c(cc1N1CCN(C3COC3)CC1)C(C)(C)c1[nH]c3cc(C#N)ccc3c1C2=O [Compound F6-13, 9-(3-Isopropoxy-prop-1-ynyl)-6,6-dimethyl-8-(4-oxetan-3-yl-piperazin-1-yl)-11-oxo-6,11-dihydro-5H-benzo[b]carbazole-3-carbonitrile]	8.10
CC1(C)c2cc(N3CCC(C)(N4CCOCC4)CC3)ncc2C(=O)c2c1[nH]c1cc(C(N)=O)ccc21 [AZ7-6, 5,5-Dimethyl-3-(4-methyl-4-morpholine-4-yl-piperidine-1-yl)-11-oxo-6,11-dihydro-5H-pyrido[4,3-b]carbazole-8-carboxylic acid amide]	5.95
CCN(CC)CCOc1ccc2c(c1)C(C)(C)c1[nH]c3cc(N(C)C(=O)Nc4ccccc4)ccc3c1C2=O [GT5-14, 1-[8-(2-Diethylamino-ethoxy)-6,6-dimethyl-11-oxo-6,11-dihydro-5H-benzo[b]carbazol-3-yl]-1 methyl-3-phenyl-urea]	5.42
CC1(C)c2cc(N3CCC(N4CCCCC4)CC3)ncc2C(=O)c2c1[nH]c1cc(C#N)ccc21 [AZ7-10, 3-[1,4′]Bipiperidinyl-1′-yl-5,5-dimethyl-11-oxo-6,11-dihydro-5H-pyrido[4,3-b]carbazole-8-carbonitrile]	8.24
CC1(C)c2cc(N3CCN(C4COC4)CC3)c(C#CC3CCCC3)cc2C(=O)c2c1[nH]c1cc(C#N)ccc21 [Compound F5-21, 9-Cyclopentylethynyl-6,6-dimethyl-8-(4-oxetan-3-ylpiperazin-1-yl)-11-oxo-6,11-dihydro-5H-benzo[b]carbazole-3-carbonitrile]	7.18
CCN(CC)CCOc1ccc2c(c1)C(C)(C)c1[nH]c3cc(N(C)C(=O)c4cccc(C(F)(F)F)c4)ccc3c1C2=O [GT5-17, N-[8-(2-Diethylamino-ethoxy)-6,6-dimethyl-11-oxo-6,11-dihydro-5H-benzo[b]carbazol-3-yl]-N methyl-3-trifluoromethyl-benzamide]	5.63
CN(C)CC(=O)Nc1cc2c(cc1OC1CCN(C)CC1)C(C)(C)c1[nH]c3cc(C#N)ccc3c1C2=O [Compound D3-3, N-[3-Cyano-6,6-dimethyl-8-(1-methyl-piperidin-4-yloxy)-11-oxo-6,11-dihydro-5H-benzo[b]carbazol-9-yl]-2-dimethylamino-acetamide]	6.88
COCCCc1cc2c(cc1N1CCN(C3COC3)CC1)C(C)(C)c1[nH]c3cc(C#N)ccc3c1C2=O [Compound F6-5, 9-(3-Methoxy-propyl)-6,6-dimethyl-8-(4-oxetan-3-yl-piperazin-1-yl)-11-oxo-6,11-dihydro-5H-benzo[b]carbazole-3-carbonitrile]	7.56

Compound	pIC50
CC(C)N1CCC(c2ccc3c(c2)C(=O)c2c([nH]c4cc(C#N)ccc24)C3(C)C)CC1 [Compound J9-3, 9-(1-Isopropyl-piperidin-4-yl)-6,6-dimethyl-11-oxo-6,11-dihydro-5H-benzo[b]carbazole-3-carbonitrile]	7.27
CCN(CC)CCOc1ccc2c(c1)C(C)(C)c1[nH]c3cc(N(C)C(=O)COc4ccccc4)ccc3c1C2=O [GT5-18, N-[8-(2-Diethylamino-ethoxy)-6,6-dimethyl-11-oxo-6,11-dihydro-5H-benzo[b]carbazol-3-yl]-N methyl-2-phenoxy-acetamide]	5.37
CCN(CC)CCOc1ccc2c(c1)C(C)(C)c1[nH]c3cc(NC(=O)C(C)(C)C)ccc3c1C2=O [GT5-6, N-[8-(2-Diethylamino-ethoxy)-6,6-dimethyl-11-oxo-6,11-dihydro-5H-benzo[b]carbazol-3-yl]-2,2-dimethyl-propionamide]	5.08
CCN(CC)CCOc1ccc2c(c1)C(C)(C)c1sc3ccccc3c1C2=O [Compound Z7, 8-(2-Diethylamino-ethoxy)-6,6-dimethyl-6H-benzo[b]naphth[2,3-d]thiophen-11-one]	5.92
CC1(C)c2cc(N3CCN(C4COC4)CC3)c(C#CCN3CCS(=O)(=O)CC3)cc2C(=O)c2c1[nH]c1cc(C#N)ccc21 [Compound F5-31, 9-[3-(1,1-Dioxo-1λ6-thiomorpholin-4-yl)-prop-1-ynyl]-6,6-dimethyl-8-(4-oxetan-3-yl-piperazin-1-yl)-11-oxo-6,11-dihydro-5H-benzo[b]carbazole-3-carbonitrile]	7.14
N#Cc1ccc2c3c([nH]c2c1)C1(CCOCC1)c1cc(OCCCN2CCOCC2)ccc1C3=O [Compound N6-4, 8-(3-Morpholinopropoxy)-11-oxo-2′,3′,5,5′,6′,11-hexahydrospiro[benzo[b]carbazole-6,4′-pyran]-3-carbonitrile]	6.91
CC#Cc1cc2c(cc1N1CCN(C3CCC3)CC1)C(C)(C)c1[nH]c3cc(C#N)ccc3c1C2=O [Compound F5-44, 8-(4-Cyclobutyl-piperazin-1-yl)-6,6-dimethyl-11-oxo-9-prop-1-ynyl-6,11-dihydro-5H-benzo[b]carbazole-3-carbonitrile]	8.22
CC1(C)c2cc(N3CCN(C4CC4)CC3)c(-c3cccnc3)cc2C(=O)c2c1[nH]c1cc(C#N)ccc21 [Compound F5-40, 8-(4-Cyclopropyl-piperazin-1-yl)-6,6-dimethyl-11-oxo-9-pyridin-3-yl-6,11-dihydro-5H-benzo[b]carbazole-3-carbonitrile]	7.59
C=C(C)c1cc2c(cc1N1CCN(C3COC3)CC1)C(C)(C)c1[nH]c3cc(C#N)ccc3c1C2=O [Compound F5-32, 9-Isopropenyl-6,6-dimethyl-8-(4-oxetan-3-yl-piperazin-1-yl)-11-oxo-6,11-dihydro-5H-benzo[b]carbazole-3-carbonitrile]	7.62
CCc1cc2c(cc1N1CCC(NCC3CCCCC3)CC1)C(C)(C)c1[nH]c3cc(C#N)ccc3c1C2=O [PR11-19, 8-[4-(Cyclohexylmethyl-amino)-piperidine-1-yl]-9-ethyl-6,6-dimethyl-11-oxo-6,11-dihydro-5H-benzo[b]carbazole-3-carbonitrile]	7.46
COCCN1CCN(C(=O)c2ccc3c(c2)C(C)(C)c2[nH]c4cc(C#N)ccc4c2C3=O)CC1 [Compound B3-30, 8-[4-(2-Methoxy-ethyl)-piperazin-1-carbonyl]-6,6-dimethyl-11-oxo-6,11-dihydro-5H-benzo[b]carbazole-3-carbonitrile]	6.64
COCC#Cc1cc2c(cc1N1CCOCC1)C(C)(C)c1[nH]c3cc(C#N)ccc3c1C2=O [Compound F5-9, 9-(3-Methoxy-prop-1-ynyl)-6,6-dimethyl-8-morpholin-4-yl-11-oxo-6,11-dihydro-5H-benzo[b]carbazole-3-carbonitrile]	8.37
CC(C)Oc1cc2c(cc1OC1CCCN(C(C)C)C1)C(C)(C)c1[nH]c3cc(C#N)ccc3c1C2=O (centres unmarked) [Compound L10-8, 9-Isopropoxy-8-(1-isopropyl-piperidin-3-yloxy)-6,6-dimethyl-11-oxo-6,11-dihydro-5H-benzo[b]carbazole-3-carbonitrile]	7.62
COc1c(C#N)ccc2c3c([nH]c12)C(C)(C)c1cc(OC[C@H](O)CO)ccc1C3=O [Compound U8-4-3, 8-((R)-2,3-Dihydroxy-propoxy)-4-methoxy-6,6-dimethyl-11-oxo-6,11-dihydro-5H-benzo[b]carbazole-3-carbonitrile]	5.96
CCC(C)NCCOc1ccc2c(c1)C(C)(C)c1[nH]c3cc(C#N)ccc3c1C2=O (centres unmarked) [Compound A8-11, 8-(2-Sec-butylamino-ethoxy)-6,6-dimethyl-11-oxo-6,11-dihydro-5H-benzo[b]carbazole-3-carbonitrile]	7.17
CCN1[C@H](C)CN(c2ccc3c(c2)C(C)(C)c2[nH]c4cc(C#N)ccc4c2C3=O)C[C@@H]1C [Compound B3-40, 8-((3R,5S)-4-Ethyl-3,5-dimethyl-piperazin-1-yl)-6,6-dimethyl-11-oxo-6,11-dihydro-5H-benzo[b]carbazole-3-carbonitrile]	7.66
